Where “and” joins values, the source holds several entries; their conditions need not be identical. Identical values can stand only once. Among all 16,000 compounds or so, about 40 (0.2%) were called active. Inconclusive results (about 1%) are left out. Calls follow the shape of the dose curve; as a rule, active = well fitted activation curve with a large enough effect; inconclusive = small, poorly fitted or top-dose-only effect, or another doubt; inactive = no such curve, though single readings can be large or run the other way. Some of the results follow. Non-standard residues stand in square brackets, D forms with d. Residues, ends and D or L forms follow the SMILES beside them. Sar = CNCC(=O)O
What follows are compounds tested against Rap guanine nucleotide exchange factor 4 (Homo sapiens) (UniProt Q8WZA2) (assay: Validation qHTS for agonist of cAMP-regulated guanine nucleotide exchange factor 4 (EPAC2)). Details: EPAC2 Rap1B BODIPY-GDP exchange, fluorescence; activation: active compounds read high.
UniProt Q8WZA2, sequence (Q8WZA2 whole entry, looked up): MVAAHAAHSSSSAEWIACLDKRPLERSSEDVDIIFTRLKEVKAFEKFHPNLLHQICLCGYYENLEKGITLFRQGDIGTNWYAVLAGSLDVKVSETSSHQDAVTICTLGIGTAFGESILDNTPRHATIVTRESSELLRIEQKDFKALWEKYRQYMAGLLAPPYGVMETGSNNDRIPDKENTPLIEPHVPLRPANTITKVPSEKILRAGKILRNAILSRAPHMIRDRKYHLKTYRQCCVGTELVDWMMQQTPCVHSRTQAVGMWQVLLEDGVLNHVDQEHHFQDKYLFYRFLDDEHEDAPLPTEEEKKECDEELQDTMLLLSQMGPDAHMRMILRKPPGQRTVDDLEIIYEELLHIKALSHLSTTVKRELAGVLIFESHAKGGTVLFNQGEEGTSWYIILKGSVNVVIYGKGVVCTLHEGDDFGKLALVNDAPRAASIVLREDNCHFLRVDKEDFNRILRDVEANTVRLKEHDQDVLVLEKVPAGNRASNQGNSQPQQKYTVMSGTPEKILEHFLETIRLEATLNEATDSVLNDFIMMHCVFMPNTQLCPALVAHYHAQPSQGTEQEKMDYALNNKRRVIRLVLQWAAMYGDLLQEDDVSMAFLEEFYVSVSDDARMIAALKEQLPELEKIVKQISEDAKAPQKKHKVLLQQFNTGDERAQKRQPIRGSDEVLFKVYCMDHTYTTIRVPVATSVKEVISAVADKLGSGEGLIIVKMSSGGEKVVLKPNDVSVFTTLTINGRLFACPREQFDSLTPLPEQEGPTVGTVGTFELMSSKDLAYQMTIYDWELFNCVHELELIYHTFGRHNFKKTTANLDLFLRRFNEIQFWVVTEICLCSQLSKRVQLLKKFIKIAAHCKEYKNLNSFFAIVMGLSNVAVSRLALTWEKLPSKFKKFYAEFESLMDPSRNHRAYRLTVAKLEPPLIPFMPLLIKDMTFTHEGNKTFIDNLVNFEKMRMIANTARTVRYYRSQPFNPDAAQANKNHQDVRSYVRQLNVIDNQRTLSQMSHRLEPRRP
Procedure, shortened: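 Signal normalized against 6.5 mM cAMP as agonist control. Mix of EPAC2 (100 nM), RAP1B-BODIPY-GDP (250 nM) and GDP (50 uM) was read kinetically at 480/540 nm, every 5 min over 30 min, after 5 min room-temperature incubation with compound.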
% is scaled to controls: 0 for no effect and ±100 for the full control effect.
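Also: exchange makes BODIPY-GDP fluorescence drop when released from Rap1B; series mostly up to about 150 µM.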

activation, inactive:
C[C@H]1CN(Cc2ccccc2)C(=O)[C@@H]1CC(=O)NCc1ccccc1 -20%
O=C1CCC[C@@H]2Cc3nc4ccc(Cl)cc4cc3[C@@H]3CCN1[C@H]23 -18.8%
O=c1cc(-c2cccc(O)c2)oc2cccc(O)c12 -1.55%
COc1cccc(CN2CCC3(CC2)c2ccccc2[C@@H](NC(=O)c2ccccc2)[C@@H]3O)c1O -21.7%
O=C(O)c1ccccc1Nc1ccccc1 2.72% [middle of 4 runs]
Cc1cc(C(=O)Nc2ccccc2-c2nc(CNC(=O)c3ccc(F)cc3F)c(C)o2)c(C)o1 -16.5%
CN(C)C(=O)c1ccc(-c2ccc3ncnc(Nc4ccccc4)c3c2)cc1 -11.1%
CCn1c(-c2ccccc2F)nc2cc(NC(C)=O)cc(C(=O)N(C)Cc3cn(C)nc3C)c21 3.4%
O=C1CC(c2ccc(O[C@@H]3OC(CO)[C@@H](O)C(O)C3O)cc2)Oc2cc(O)ccc21 (stereo partly drawn) -18.4%
CC(C)C(NS(C)(=O)=O)c1nnc2n1CCN(Cc1ccnc3ccccc13)CC2 (stereo not drawn) -16.4%
CCCCCCCCCCCCCCCC(=O)OC(CC(=O)O)C[N+](C)(C)C (stereo not drawn) -22.5% and -85%
COc1cc([C@@H]2c3cc4c(cc3C(O[C@@H]3O[C@@H]5COC(c6cccs6)O[C@H]5[C@H](O)[C@H]3O)C3COC(=O)[C@@H]32)OCO4)cc(OC)c1O (stereo partly drawn) -28.2%
O=C(/C=C/c1ccc(OCc2ccccc2)cc1)c1cccs1 -17.1%
COc1ccc(C(=O)NCCN2Cc3cc(C)ccc3OC(C)C2)c(OC)n1 (stereo not drawn) -1.16%
CC1NC(C(=O)O)Cc2c1[nH]c1ccccc21 (stereo not drawn) 1.79%
CC(C)CC(NP(=O)(O)O[C@@H]1O[C@@H](C)[C@H](O)[C@@H](O)[C@H]1O)C(=O)NC(Cc1c[nH]c2ccccc12)C(=O)O (stereo partly drawn) -15.6%
Cc1cccc(CNc2ncncc2-c2ccccc2C)c1 -7.7%
O=S(=O)(c1ccccc1)N1CCC2(CCN(Cc3ccccc3)CC2)CC1 2.74%
Cc1ccc(S[C@@H](CCN2CC[C@H](C)CCC2=O)c2ccccc2)cc1 -2.26%
COc1ccc(NC(=O)N2CC[C@@]3(CCCNC3)C2)cc1 -13.6%
Cc1nc2cc(NC(=O)[C@@H]3C[C@@H](Sc4ccccn4)CN3C3CCCCCC3)ccc2s1 -9.56%
CCCN(CCc1cccs1)[C@H]1CCc2c(O)cccc2C1 4.65%
COC(=O)[C@H]1[C@@H]2C[C@H]3c4[nH]c5ccccc5c4CCN3C[C@@H]2CC[C@@H]1O -2.47%
CCOC(=O)N1CCN(Cc2ccc3c(c2)CN(C(=O)c2cc(-c4ccccc4)no2)CCO3)CC1 -9.88%
CC(=O)N1CCC2(CC1)CN(c1ccccn1)C2 -1.03%
CC(=O)N1CCC2(CCCN(Cc3cc(C(F)(F)F)cc(C(F)(F)F)c3)C2)CC1 -37.3%
Cc1cc(=O)n(-c2ccccc2)n1C 4.36% and 10.5%
O=C1CCN(Cc2ccc(Br)cc2)CCN1[C@H](CO)Cc1ccccc1 -0.692%
Cc1csc[n+]1CC(=O)c1ccccc1 -4.38%
CN(C)c1cccc(C(=O)NCC2Cc3cccc(-c4cncnc4)c3O2)c1 (stereo not drawn) -0.0867%
COc1cc(NS(=O)(=O)c2ccc(N)cc2)nc(C)n1 -6.43%
CCCCCC(CC(=O)O)C(=O)O (stereo not drawn) -4.17%
CO[C@H]1[C@H](NC(=O)c2ccsc2)c2ccccc2C12CCN(Cc1c(O)ccc3ccccc13)CC2 -7.57%
CO[C@H]1O[C@@H]2O[C@@]3(C)CC[C@H]4[C@H](C)CC[C@@H]([C@H]1C)[C@@]24OO3 1.36%
Cc1ccc(C(=O)Nc2cccc(-c3nc(CNC(=O)c4cccc(C)c4C)c(C)o3)c2)s1 -13.5%
CN(C)c1ncc2nc(-c3ccc(Cl)cc3)c(=O)n(-c3ccccc3)c2n1 -6.01%
O=c1c2ccccc2oc2ccccc12 -4.37%
COc1ccc(-c2nc3cnc(OCc4ccccc4)nc3n(CCC#N)c2=O)cc1 -4.89%
COC(=O)[C@@H]1CCCN1C(=O)c1c(OC)cc(=O)n2c1CCN(Cc1ccc3nsnc3c1)CC2 -3.69%
NC12CC3CC(CC(C3)C1)C2 4.48% [middle of 4 runs]
Cc1noc(C)c1C(=O)N1CCC2(CC1)CCN(c1ccncc1)CC2 -10.4%
CCCN1CCC(=O)N([C@H](COc2ccccc2)CC(C)C)CC1 -15.9%
CC(C)(C)C(=O)NCCCC(=O)O -13.6%
O=c1c(-c2cccs2)nc2cnc(Oc3cccc(Cl)c3)nc2n1C[C@H]1CCCO1 1.05%
FC(F)(F)c1ccccc1-c1ccc2ncnc(NC3CCNCC3)c2c1 -6.51%
N#C/C(=C\c1ccc(O)c(O)c1)C(=O)c1ccc(O)c(O)c1 -34.3%
CC1CCC(C(C)[C@H]2CCC3C4CC(=O)C5C[C@@H](O)CC[C@]5(C)C4CC[C@@]32C)=NC1 (stereo partly drawn) 7.9%
NCC(=O)O -10.7%
Cc1c(CN2CCOc3c(cc(-c4ncc(C(F)(F)F)cc4Cl)cc3OCC3CCCO3)C2)cnn1C (stereo not drawn) -8.06%
COCC(=O)N1CCC[C@@]2(CCN(Cc3ccccc3)C2)C1 0.21%
CC1(C)CCC[C@@]2(C)C1CC[C@@](C)(O)[C@@H]2CC[C@@](C)(O)C1CO1 (stereo partly drawn) -55.1%
Cc1ccc(-c2ncc(Cl)cc2-c2ccc(S(C)(=O)=O)cc2)cn1 -14.9%
O=c1c(O)c(-c2ccc(O)cc2)oc2ccc(O)cc12 -3.15%
CNCC(=O)NCC(=O)N[C@@H](Cc1ccccc1)C(=O)N[C@@H](CC(C)C)C(=O)O (H-[Sar]GFL-OH) 8.14%
Cc1cc(C(=O)NCc2nnc3n2CCN(Cc2ccc4c(c2)Cc2ccccc2-4)CC3)c(C)o1 -35.7%
CC(C)[C@@H]1CC[C@@H](C)C[C@@H]1P(=O)(c1ccccc1)c1ccccc1 -31.3%
CC(C)C(N)C(=O)NC(Cc1c[nH]c2ccccc12)C(=O)O (stereo not drawn) -10.2%
COc1ccc2[nH]cc(CCNc3nc(-c4cccc(C#N)c4)nc4ccccc34)c2c1 14.5%
COc1ccc(SC[C@H](C)CN2CC[C@H](O)CCC2=O)cc1 -18.8%
Cn1cccc1C(=O)N1CCC2(CC1)CCN(c1ccccn1)CC2 -20.6%
CC1CCc2c(N3CCC(O)CC3)c(F)cc3c(=O)c(C(=O)O)cn1c23 (stereo not drawn) 3.8%
CC(=O)c1ccc(F)c(-c2cc(C)cc3c2OC(CNC(=O)c2cnc4ccccn4c2=O)C3)c1 (stereo not drawn) -25.5%
CC1(C2CCN(Cc3c[nH]c4ccccc34)CC2)NC(=O)N(CCN2CCOCC2)C1=O (stereo not drawn) -3.11%
COC(=O)C[C@H]1c2ccccc2S(=O)(=O)N1c1cccc(OC)c1 -0.673%
NC(Cc1cccc(-c2ccccc2CP(=O)(O)O)c1)C(=O)O (stereo not drawn) -26.7%
O=S(=O)(c1cccc2cnccc12)N1CCNCC1 1.51%
COc1ccccc1C1CN(Cc2cccc3c2OCO3)Cc2ccccc2O1 (stereo not drawn) -15.7%
COc1ccc(CN2CC[C@H]3C=CC[C@@H](C(=O)Nc4nccs4)[C@H]3C2=O)cc1OC -3.26%
O=C(O)Cc1cccc(-c2cc(CCCCCCc3ccc(O[C@H]4O[C@H](CO)[C@@H](O)[C@H](O)[C@@H]4O)c(-c4cccc(CC(=O)O)c4)c3)ccc2O[C@H]2O[C@H](CO)[C@@H](O)[C@H](O)[C@@H]2O)c1 -8.94%
CC(=O)N(O)CCCCCNC(=O)CCC(=O)N(O)CCCCCNC(=O)CCC(=O)N(O)CCCCCN 7.45% and 0.364%
Cc1ccc(C)c(S(=O)(=O)NCc2nc(N3CCCC3)c3cc(Cl)ccc3n2)c1 -2.61%
O=c1c(-c2ccc(Cl)cc2)nc2cnc(Nc3ccccc3)nc2n1C[C@H]1CCCO1 -9.29%
CC(C)[C@H]1COCCS(=O)(=O)N1Cc1cccc([N+](=O)[O-])c1 -19.5%
N[C@H](CO)C(=O)O 1.58% and 5.58% and -30.3%
COc1ccc(-n2c(CNC(=O)c3cccc(OC)c3OC)nnc2SC)cc1 -10.5%
CC(C)NC(=O)N1CC2(CCN(C(=O)c3cccn3C)CC2)C1 -24%
CC(=O)SC[C@@H](Cc1ccccc1)C(=O)NCC(=O)OCc1ccccc1 6.3%
COc1ncc2nc(-c3ccc(F)cc3)c(=O)n(C)c2n1 9.23%
Cc1noc(C)c1-c1nccc(N2CCNCC2)n1 -15.1%
C[N+](C)(C)CCCCCNCC12CC3CC(CC(C3)C1)C2 -14.4%
Cc1ncc2c(c1CNS(=O)(=O)N(C)C)CCN(C(=O)/C=C/c1ccccc1Cl)C2 -2.62%
CCCC(=O)N1CCCN(c2nc(N)c3cc(OC)c(OC)cc3n2)CC1 -7.03%
CCN[C@H]1C[C@H](C)S(=O)(=O)c2sc(S(N)(=O)=O)cc21 8.53%
